# Laboratory results taken from the supplement of paper PMC8728848.
# Some of the results follow.
# B1: NanI (Corynebacterium diphtheriae), C6JSW7 (protein)
# chain: MTNTLESNPMTTTTGALTITFATTCDGPLAHIPHHLDLNIIHGRIQGTTAHRRIDAEDPDGLDDGLPHHLCLSVDTTGTHLFIDGYEAFSTTQTEWFDTSELTLNPHGDLTIIDHQILNHAPTPRQARNLAPAAEPLVWFAGSHLSTRDTQRISHLTHGSLRLLMKTRGTGQGGVAFQAHTINGDLTLEIIDGTLIFSVRCHDEDYVRITAPGRWDDGQIYDVVIVCGRGATDIYVDGQQLIHSPGAAFFNDLSGELSVHIGTAASGVRLFGEVQSGMIYPHVFNHHQVQRLATVEPIATQALFDCLLDGAQSYRIPSLITTDSGVIIAGADKRVSIANDAPNDIDFVLRRSVDGGRTWQPPRTILQLPDTACVTDSVLLQDHTTGRIFAFLDQFPAGIGQPNAAFGTGFDADGNRIGHFADGSTCTMPREVDQLEASFFSDPHTAPPGIVFQHPSCHLWMLTSDDDGLTWSTPRDLTPDVKEEWMRFCGTSPGNGIQLQRDTHAGRLLIPMYYTKGDQFFAAALYSDDHGDTWHRGESPDLEMYESTLVEASDGSVLLWARNQHPSGAVAHARSTDGGHSWSQVTFNPNVPEIFSQPNALRVTNPDGIIFANASQLLPFRGRGVLRMSTNDGASWQHNRVFNPRHYVYQCMTQLPDGSIGLLWEREMQGLFFSIIPMTWIMQGYAL
# How the values were obtained:
# Assay in all cases: glycan array binding signal (z-score within array); higher = stronger binding
# Details in all cases: glycan notation: IUPAC condensed, linker removed
# Gal(a1-3)Gal = biological target: Gal(a1-3)Gal
# Method in brief: (§1)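 Glycan array data were curated from 3228 arrays in the Consortium for Functional Glycomics database and kept only where the protein sequence was available. Glycan names were converted to IUPAC-condensed notation, and columns mapping to the same glycan were averaged. The binding signal is a within-array Z-score, averaged across arrays of the same protein sequence at different concentrations or buffers and across linkers. Negative Z-scores can be read as non-binding.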
# Gal(a1-3)Gal(b1-3)GlcNAc = biological target: Gal(a1-3)Gal(b1-3)GlcNAc
# Method in brief: as §1
# [1] = biological target: Gal(a1-3)Gal(b1-3)GlcNAc(b1-2)Man(a1-3)[Gal(a1-3)Gal(b1-3)GlcNAc(b1-2)Man(a1-6)]Man(b1-4)GlcNAc(b1-4)GlcNAc
# Method in brief: as §1
# [2] = biological target: Gal(a1-3)Gal(b1-3)GlcNAc(b1-3)GalNAc
# Method in brief: as §1
# [3] = biological target: Gal(a1-3)Gal(b1-3)[Fuc(a1-4)]GlcNAc(b1-2)Man(a1-3)[Gal(a1-3)Gal(b1-3)[Fuc(a1-4)]GlcNAc(b1-2)Man(a1-6)]Man(b1-4)GlcNAc(b1-4)GlcNAc
# Method in brief: as §1
# Gal(a1-3)Gal(b1-4)Glc = biological target: Gal(a1-3)Gal(b1-4)Glc
# Method in brief: as §1
# Gal(a1-3)Gal(b1-4)GlcNAc = biological target: Gal(a1-3)Gal(b1-4)GlcNAc
# Method in brief: as §1
# [4] = biological target: Gal(a1-3)Gal(b1-4)GlcNAc(b1-3)GalNAc
# Method in brief: as §1
# [5] = biological target: Gal(a1-3)Gal(b1-4)[Fuc(a1-3)]GlcNAc
# Method in brief: as §1
# [6] = biological target: Gal(a1-3)Gal(b1-4)[Fuc(a1-3)]GlcNAc(b1-2)Man(a1-3)[Gal(a1-3)Gal(b1-4)[Fuc(a1-3)]GlcNAc(b1-2)Man(a1-6)]Man(b1-4)GlcNAc(b1-4)GlcNAc
# Method in brief: as §1
# Gal(a1-3)GalNAc = biological target: Gal(a1-3)GalNAc
# Method in brief: as §1
# [7] = biological target: Gal(a1-3)[Gal(a1-4)]Gal(b1-4)GlcNAc
# Method in brief: as §1
# [8] = biological target: Gal(a1-4)Gal(b1-3)GlcNAc(b1-2)Man(a1-3)[Gal(a1-4)Gal(b1-3)GlcNAc(b1-2)Man(a1-6)]Man(b1-4)GlcNAc(b1-4)GlcNAc
# Method in brief: as §1
# Gal(a1-4)Gal(b1-4)Glc = biological target: Gal(a1-4)Gal(b1-4)Glc
# Method in brief: as §1
# Gal(a1-4)Gal(b1-4)GlcNAc = biological target: Gal(a1-4)Gal(b1-4)GlcNAc
# Method in brief: as §1
# [9] = biological target: Gal(a1-4)Gal(b1-4)GlcNAc(b1-2)Man(a1-3)[Gal(a1-4)Gal(b1-4)GlcNAc(b1-2)Man(a1-6)]Man(b1-4)GlcNAc(b1-4)GlcNAc
# Method in brief: as §1
# [10] = biological target: Gal(a1-4)Gal(b1-4)GlcNAc(b1-3)Gal(b1-4)Glc
# Method in brief: as §1
# Gal(a1-4)GlcNAc = biological target: Gal(a1-4)GlcNAc
# Method in brief: as §1
# Gal(a1-6)Glc = biological target: Gal(a1-6)Glc
# Method in brief: as §1
# Gal(b1-2)Gal = biological target: Gal(b1-2)Gal
# Method in brief: as §1
# Gal(b1-3)Gal = biological target: Gal(b1-3)Gal
# Method in brief: as §1
# Gal(b1-3)Gal(b1-4)GlcNAc = biological target: Gal(b1-3)Gal(b1-4)GlcNAc
# Method in brief: as §1
# [11] = biological target: Gal(b1-3)Gal(b1-4)GlcNAc(b1-2)Man(a1-3)[Gal(b1-3)Gal(b1-4)GlcNAc(b1-2)Man(a1-6)]Man(b1-4)GlcNAc(b1-4)GlcNAc
# Method in brief: as §1
# Gal(b1-3)GalNAc = biological target: Gal(b1-3)GalNAc
# Method in brief: as §1
# [12] = biological target: Gal(b1-3)GalNAc(a1-3)[Fuc(a1-2)]Gal(b1-4)Glc
# Method in brief: as §1
# [13] = biological target: Gal(b1-3)GalNAc(a1-3)[Fuc(a1-2)]Gal(b1-4)GlcNAc
# Method in brief: as §1
# [14] = biological target: Gal(b1-3)GalNAc(b1-3)Gal(a1-4)Gal(b1-4)Glc
# Method in brief: as §1
# [15] = biological target: Gal(b1-3)GalNAc(b1-4)Gal(b1-4)Glc
# Method in brief: as §1
# [16] = biological target: Gal(b1-3)GalNAc(b1-4)[Neu5Ac(a2-3)]Gal(b1-4)Glc
# Method in brief: as §1
# Gal(b1-3)GlcNAc = biological target: Gal(b1-3)GlcNAc
# Method in brief: as §1
binder,measurement,setting,value
B1,glycan array binding signal (z-score),Gal(a1-3)Gal,-0.906
same,glycan array binding signal (z-score),Gal(a1-3)Gal(b1-3)GlcNAc,0.012
same,glycan array binding signal (z-score),[1],0.294
same,glycan array binding signal (z-score),[2],-0.661
same,glycan array binding signal (z-score),[3],0.116
same,glycan array binding signal (z-score),Gal(a1-3)Gal(b1-4)Glc,-0.299
same,glycan array binding signal (z-score),Gal(a1-3)Gal(b1-4)GlcNAc,-0.25
same,glycan array binding signal (z-score),[4],-0.278
same,glycan array binding signal (z-score),[5],-1.04
same,glycan array binding signal (z-score),[6],1.26
same,glycan array binding signal (z-score),Gal(a1-3)GalNAc,-0.16
same,glycan array binding signal (z-score),[7],-0.388
same,glycan array binding signal (z-score),[8],-0.243
same,glycan array binding signal (z-score),Gal(a1-4)Gal(b1-4)Glc,0.553
same,glycan array binding signal (z-score),Gal(a1-4)Gal(b1-4)GlcNAc,-0.651
same,glycan array binding signal (z-score),[9],0.804
same,glycan array binding signal (z-score),[10],-0.764
same,glycan array binding signal (z-score),Gal(a1-4)GlcNAc,-0.058
same,glycan array binding signal (z-score),Gal(a1-6)Glc,-0.551
same,glycan array binding signal (z-score),Gal(b1-2)Gal,-0.036
same,glycan array binding signal (z-score),Gal(b1-3)Gal,0.381
same,glycan array binding signal (z-score),Gal(b1-3)Gal(b1-4)GlcNAc,0.247
same,glycan array binding signal (z-score),[11],0.865
same,glycan array binding signal (z-score),Gal(b1-3)GalNAc,-0.154
same,glycan array binding signal (z-score),[12],-0.472
same,glycan array binding signal (z-score),[13],-0.733
same,glycan array binding signal (z-score),[14],-0.183
same,glycan array binding signal (z-score),[15],-0.45
same,glycan array binding signal (z-score),[16],-0.921
same,glycan array binding signal (z-score),Gal(b1-3)GlcNAc,-0.5
